In PMC6919601, “Identification of Plasmodium dipeptidyl aminopeptidase allosteric inhibitors by high throughput screening” (PLoS ONE, 2019):
The whole screen tested about 110,000 compounds, of which about 230 (0.21%) showed an effect of 50% or more. The list shows a part of the results.

What follows are compounds tested against DPAP1 (Plasmodium falciparum, UniProt Q8IIJ9) (assay: primary screen, percent inhibition; read by cleavage of a fluorogenic dipeptide substrate; higher = more effect of the substance).
Chain of DPAP1 (Q8IIJ9 whole entry, looked up): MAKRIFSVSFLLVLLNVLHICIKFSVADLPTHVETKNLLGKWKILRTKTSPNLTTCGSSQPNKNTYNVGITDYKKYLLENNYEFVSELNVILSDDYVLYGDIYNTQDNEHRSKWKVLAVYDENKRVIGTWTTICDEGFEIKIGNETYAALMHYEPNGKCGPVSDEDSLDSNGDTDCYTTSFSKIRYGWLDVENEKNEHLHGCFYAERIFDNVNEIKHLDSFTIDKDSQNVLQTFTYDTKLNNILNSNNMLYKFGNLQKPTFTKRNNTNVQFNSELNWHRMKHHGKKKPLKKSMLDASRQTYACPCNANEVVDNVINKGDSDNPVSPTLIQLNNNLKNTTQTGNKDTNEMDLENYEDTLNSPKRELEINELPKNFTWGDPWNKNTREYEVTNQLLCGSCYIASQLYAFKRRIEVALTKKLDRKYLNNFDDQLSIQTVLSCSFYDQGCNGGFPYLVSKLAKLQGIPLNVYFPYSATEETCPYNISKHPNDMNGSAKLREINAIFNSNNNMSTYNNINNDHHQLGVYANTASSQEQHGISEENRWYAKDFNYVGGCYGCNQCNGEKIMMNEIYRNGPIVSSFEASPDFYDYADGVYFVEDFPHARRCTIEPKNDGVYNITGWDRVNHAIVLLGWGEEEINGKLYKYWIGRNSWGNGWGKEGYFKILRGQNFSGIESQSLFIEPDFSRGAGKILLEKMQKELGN
Set-up: species or system P. falciparum D10 trophozoite lysates; single well
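Further: 30 min substrate incubation versus DMSO and 10 µM JCP410 controls.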

First: COCCCN1CCc2nc(S)nc(O)c2C1
Second: CCC1CCCCN1Cc1nc2c(c(=O)n(C)c(=O)n2C)n1CCOC (centres unmarked)
The “% Inhibition @ 10 uM” value of the first is lower: -3.85% for the first, -1.43% for the second.

Going from `CN1CCC(N(C)Cc2c(F)cccc2Cl)CC1` to `Cc1cc(OCC(=O)N(Cc2ccccc2F)C2CCS(=O)(=O)C2)cc(C)c1Cl` (centres unmarked), the “% Inhibition @ 10 uM” value rises from -7.93% to 3.62%.

Going from `COCCN1C(=O)c2ccccc2C(C(=O)N2CCN(Cc3ccccc3)CC2)C1c1cccs1` (centres unmarked) to `Oc1ccccc1C1CC(c2ccccc2)=NC(c2cccs2)N1` (centres unmarked), the “% Inhibition @ 10 uM” value rises from -0.613% to 2.57%.

Compared with `COc1ccc(C2CC(C(F)(F)F)n3ncc(C(=O)NCc4cnn(C)c4C)c3N2)cc1OC` (centres unmarked), `COc1ccc(NC(=O)c2nn3c(c2Cl)NC(c2cccs2)CC3C(F)(F)F)c(OC)c1` (centres unmarked) is higher in “% Inhibition @ 10 uM” value: -5.7% for the first, -2.87% for the second.

First: Cc1cc(C)c(Cn2cccc2C2=NC(C)CO2)c(C)c1 (centres unmarked)
Second: CCc1ccccc1NS(=O)(=O)c1c(C)cc(C)cc1C
The “% Inhibition @ 10 uM” value of the first is lower: -3.39% for the first, -1.62% for the second.

Going from `Cc1ccc(NC(=O)CN2CCOCC2)cc1Cl` to `Oc1cc(N2CCOCC2)c2ccccc2c1Cl`, the “% Inhibition @ 10 uM” value falls from 5.39% to -1.17%.

First: CCOc1ccc(/C=c2/sc3nnc(-c4ccccc4C)n3c2=O)cc1
Second: Cc1ccc(OCCCn2nnc3sc(-c4ccccc4)cc3c2=O)cc1
The “% Inhibition @ 10 uM” value of the first is lower: 2.24% for the first, 4% for the second.

Going from `N#C/C(=C\Nc1cccc(Cl)c1)C(=O)NC(=O)c1ccccc1` to `O=C(Nc1cccc(C(F)(F)F)c1)/C(=C\c1cccnc1)NC(=O)c1ccsc1`, the “% Inhibition @ 10 uM” value rises from 2.38% to 4.67%.

Compared with `CC(C)C[C@H](NC(=O)c1ccc(-c2csc(NC3CCN(C(=O)OC(C)(C)C)CC3)n2)cc1)C(=O)NCC#N`, `Cc1cccn2c(=O)c(/C=C(\C#N)C(=O)N3CCCCC3)c(Oc3ccc(C(C)(C)C)cc3)nc12` is higher in “% Inhibition @ 10 uM” value: -4.72% for the first, 3.63% for the second.

Going from `Cc1cc(=O)n2cccc(O)c2n1` to `Cc1ccc(-c2ncccc2O)cc1[N+](=O)[O-]`, the “% Inhibition @ 10 uM” value rises from -5.5% to 7.58%.

Going from `CC(C)(C)n1cnc2cc(NC(=O)c3cccs3)ccc21` to `CC(C)Oc1ccc(C(=O)Nc2cccc(O)c2)cc1`, the “% Inhibition @ 10 uM” value rises from -3.24% to 4.03%.

First: COC(=O)c1ccc2oc(=O)c(-c3nc4cc(C(=O)O)ccc4[nH]3)cc2c1
Second: O=c1oc2cc(O)ccc2cc1-c1nc(-c2ccc3ccccc3c2)cs1
The “% Inhibition @ 10 uM” value of the first is higher: 4.77% for the first, 0.23% for the second.

First: Cc1[nH]cnc1CN1CCC(Cc2ccccc2)CC1
Second: CC(CCc1ccccc1)N1CCN(C)CC1 (centres unmarked)
The “% Inhibition @ 10 uM” value of the first is lower: 0.217% for the first, 3.05% for the second.

Compared with `CC1CCCC(C)N1CCNC(=O)C1C2C=CC3(CN(Cc4ccccc4Cl)C(=O)C13)O2` (centres unmarked), `CC1CCC(NC(=O)Nc2cn(C)c(=O)c3ccccc23)CC1` (centres unmarked) is higher in “% Inhibition @ 10 uM” value: -5.43% for the first, 2.25% for the second.

Compared with `COc1ccc(C2(CNCC3(O)CCC4C5CCC6C7OCCOC7C(C)CC6(C)C5CCC43C)CCCC2)cc1OC` (centres unmarked), `COc1ccc(OC)c(N(CC(=O)NC2CCCCC2)S(=O)(=O)c2ccc(C)cc2)c1` is lower in “% Inhibition @ 10 uM” value: 1.54% for the first, 0.189% for the second.

Compared with `CO/C=C(\Oc1ccccc1C)C(=O)Nc1cccc(C)c1`, `COc1ccc(OC)c(NC(=O)CN(c2cccc3ccccc23)S(C)(=O)=O)c1` is lower in “% Inhibition @ 10 uM” value: -2.99% for the first, -9.56% for the second.

First: Clc1ccc(Oc2nc(N3CCOCC3)nc(N3CCOCC3)n2)c(C2CCCCC2)c1
Second: CC1CCN(S(=O)(=O)c2ccc3c(ccn3CC(=O)NC3CCCCC3)c2)CC1
The “% Inhibition @ 10 uM” value of the first is higher: 4.19% for the first, -2.93% for the second.

Compared with `CC(NC(=O)CN(C)S(=O)(=O)c1c[nH]cn1)c1ccccc1` (centres unmarked), `CN(CC(=O)Nc1ccc(Cl)cc1Cl)S(=O)(=O)c1ccc(F)cc1` is lower in “% Inhibition @ 10 uM” value: -0.0309% for the first, -0.891% for the second.

Going from `COc1cccc(CCNCc2c(F)cccc2F)c1` to `CC1(c2cccc(OCc3cccc(Cl)c3)c2)NC(=O)NC1=O` (centres unmarked), the “% Inhibition @ 10 uM” value falls from 25.4% to -9.6%.

First: O=C(CSc1nc2ccccc2o1)Nc1ccccc1C(F)(F)F
Second: CC(C)CCNCc1c(C(=O)O)n(Cc2ccccc2Cl)c2ccccc12
The “% Inhibition @ 10 uM” value of the first is higher: 1.84% for the first, -5.05% for the second.

Going from `COc1ccc(-c2nn(C)c(=O)c3ccccc23)cc1CNC(=O)c1ccccc1OC` to `COc1ccc(CCNC(=O)c2nn(C)c3c2CS(=O)(=O)c2ccccc2-3)c(OC)c1`, the “% Inhibition @ 10 uM” value falls from 3.72% to 1.51%.

Compared with `ClC(Cl)=CC1CC(c2ccccc2)=NN1c1ccccc1` (centres unmarked), `Cc1cc(Sc2nnnn2-c2ccccc2)nc2ccccc12` is higher in “% Inhibition @ 10 uM” value: -1.76% for the first, -0.424% for the second.

First: C=CCOc1cccc(C(Nc2cc(C)ccn2)c2ccc3cccnc3c2O)c1 (centres unmarked)
Second: Cc1ccc(C(=O)C2=C(O)C(=O)N(c3nccs3)C2c2cccc(OCc3ccccc3)c2)o1 (centres unmarked)
The “% Inhibition @ 10 uM” value of the first is higher: -1.33% for the first, -3.65% for the second.

Compared with `OCC1CCCN(Cc2cccs2)C1` (centres unmarked), `Cc1nc2nc(NCc3cccs3)nn2c(O)c1C` is higher in “% Inhibition @ 10 uM” value: -6.12% for the first, -0.671% for the second.

Going from `CCOc1cc2c(cc1/C=C1\SC(=O)NC1=O)OCO2` to `COc1cc(N2CCCC2)c(OC)cc1/C=C1\SC(=O)N(C(C)C)C1=O`, the “% Inhibition @ 10 uM” value falls from 7.87% to 3.35%.

First: O=[N+]([O-])c1ccc(-c2[nH]c(-c3ccc(Br)cc3)nc2-c2ccccc2)cc1
Second: COc1ccc(-c2nc(SCC(=O)Nc3nccs3)c(-c3ccc(Cl)cc3)[nH]2)cc1
The “% Inhibition @ 10 uM” value of the first is higher: 7.47% for the first, -1.58% for the second.

Going from `COc1ccc(C(=O)NC2(C(F)(F)F)C(=O)Nc3c2c(=O)[nH]c(=O)n3-c2ccc(F)cc2)cc1` (centres unmarked) to `COc1ccc(N2C(=O)NC(=O)C(Cc3ccc(O)c(OC)c3)C2=O)cc1` (centres unmarked), the “% Inhibition @ 10 uM” value rises from 0.231% to 6.69%.

First: O=C(NCCO)/C(=C/c1ccc(Br)cc1)NC(=O)c1cccs1
Second: CC(C)N(C(=O)c1ccc(C(=O)Nc2ccc(Br)cc2)cc1)C(C)C
The “% Inhibition @ 10 uM” value of the first is higher: 2.69% for the first, -11.9% for the second.

Compared with `COc1cccc(N(CC(=O)Nc2ccccc2C)S(=O)(=O)c2ccccc2)c1`, `Cc1ccc(S(=O)(=O)Nc2ccc(NC(=O)Nc3ccccc3)cc2)cc1` is lower in “% Inhibition @ 10 uM” value: 2.02% for the first, -5.13% for the second.

Going from `COc1cccc(/C=C2\SC(Nc3cccc(Cl)c3C)=NC2=O)c1OCC(=O)O` to `COc1cc(OC)c(/C=C2\SC(=O)N(CC(=O)Nc3ccccc3F)C2=O)c(OC)c1`, the “% Inhibition @ 10 uM” value falls from 7% to -7.09%.

Compared with `Cc1nc2cc(-c3ccccc3)nn2c(C)c1CC(=O)NCCCOC(C)C`, `COCCNC(=O)CCc1nnc2n(CCc3ccccc3)c(=O)c3ccccc3n12` is lower in “% Inhibition @ 10 uM” value: 0.953% for the first, -0.692% for the second.

Compared with `CC(Oc1ccc(F)cc1)C(=O)Nc1sc2c(c1C(=O)NCc1cccnc1)CCCC2` (centres unmarked), `O=C(Nc1cccc(Oc2ccc(C(=O)O)c(C(=O)O)c2)c1)c1ccc(F)cc1` is lower in “% Inhibition @ 10 uM” value: 0.661% for the first, -0.822% for the second.

First: CSc1nc(C)cc(Oc2ccc(OCC(N)=O)nn2)n1
Second: Cc1cc(C)c(C(N)=O)c(Nc2ccc(Cl)cc2)n1
The “% Inhibition @ 10 uM” value of the first is higher: -6.71% for the first, -10.8% for the second.

Compared with `c1ccc(N2CCN(C3C4CC5CC(C4)CC3C5)CC2)cc1` (centres unmarked), `O=C(NCCc1ccccc1)C1CCN(S(=O)(=O)c2ccc3[nH]c4c(c3c2)CCCCC4)CC1` is lower in “% Inhibition @ 10 uM” value: 1.29% for the first, -3% for the second.

First: CCCCOc1ccc(C(=O)Cc2ccccc2)cc1
Second: OCCN(Cc1ccccc1)Cc1ccsc1
The “% Inhibition @ 10 uM” value of the first is lower: -3.74% for the first, 1.74% for the second.

First: COc1cccc(CNc2nc3c(S(=O)(=O)c4ccc(C(C)C)cc4)nnn3c3ccsc23)c1
Second: Cc1cc(/C=C2\C(=N)N3N=C(S(C)(=O)=O)SC3=NC2=O)c(C)n1-c1cccc2ccccc12
The “% Inhibition @ 10 uM” value of the first is higher: 5.09% for the first, -3.39% for the second.

Going from `Cc1cccc(C)c1NC(=O)C1(N(C)C(=O)CN2C(=O)c3ccccc3C2=O)CCCCC1` to `Cc1cccc(NC(=O)C2CCN(S(=O)(=O)c3ccc(Br)cc3)CC2)c1C`, the “% Inhibition @ 10 uM” value rises from -3.98% to -1.17%.

Compared with `Cc1ccc(S(=O)(=O)Cc2ccc(C(=O)N3CCCCCC3)o2)cc1`, `COc1ccc(C(=O)N2CCN(c3cc(Cl)ccc3C)CC2)cc1` is lower in “% Inhibition @ 10 uM” value: -1.28% for the first, -4.71% for the second.

First: COc1ccc(CN2CCN(Cc3cccc(Br)c3)CC2)cc1OC
Second: COc1cc(/C(C#N)=C/c2cccc(Br)c2)c([N+](=O)[O-])cc1OC
The “% Inhibition @ 10 uM” value of the first is lower: -3.12% for the first, -0.771% for the second.

Going from `O=C(NCc1ccco1)c1ccc2c(c1)OCO2` to `O=C(/C=C/c1ccco1)Nc1nc(-c2ccc(Br)cc2)cs1`, the “% Inhibition @ 10 uM” value rises from -3.47% to 1.13%.

First: Cc1ccc(Nc2nc(N)nc(Cl)n2)cc1
Second: C=CCSc1nnc(-c2ccc(C)cc2)o1
The “% Inhibition @ 10 uM” value of the first is lower: 0.00178% for the first, 4.95% for the second.

Compared with `CCCCc1ccc(-n2c(C)cc(/C=C3\NC(=O)NC3=O)c2C)cc1`, `Cc1ccc(OCCCCCCc2c(C)n[nH]c2C)cc1` is higher in “% Inhibition @ 10 uM” value: -4.48% for the first, 1.35% for the second.

Going from `Cn1cc(C(=O)N2CCc3ccccc32)cn1` to `CC1=NN(C(=O)c2ccccc2O)C(O)(c2cccnc2)C1` (centres unmarked), the “% Inhibition @ 10 uM” value falls from -6.25% to -8.42%.

Compared with `Cc1c(Cl)c(Cl)nc(Cl)c1C(=O)NC(=O)NCc1ccccc1Cl`, `CC(=O)N1C(=O)C2(C(C#N)=C(N)Oc3[nH]nc(-c4ccccn4)c32)c2ccccc21` (centres unmarked) is lower in “% Inhibition @ 10 uM” value: 2.8% for the first, 2.46% for the second.

Compared with `O=C(O)C12CC3CC(CC(C3)C1=O)C2`, `Cc1nc(=O)c(-c2ccccc2)c(C)n1C1CC(C)(C)NC(C)(C)C1` is higher in “% Inhibition @ 10 uM” value: 0.968% for the first, 2.57% for the second.

First: O=C(CSc1nsc(SCC(=O)c2ccccc2)n1)c1ccccc1
Second: Cc1cccc2sc(N(CCCN(C)C)C(=O)CCS(=O)(=O)c3ccccc3)nc12
The “% Inhibition @ 10 uM” value of the first is lower: -9.18% for the first, -6.33% for the second.

Compared with `Cc1cc(C)c2ccc(=O)c(O)c-2o1`, `COc1ccc(C(=O)c2coc3ccc(O)c(CN4CCOCC4)c23)cc1` is lower in “% Inhibition @ 10 uM” value: 7.55% for the first, -2.5% for the second.

First: Cc1cc(C)n2c(SCCO)nnc2n1
Second: Cc1ccc(-c2nc3nc(C)cc(N4CCN(c5ccccn5)CC4)n3n2)cc1
The “% Inhibition @ 10 uM” value of the first is higher: 6.52% for the first, 0.128% for the second.

Going from `COc1ccccc1/C=C/c1ccc2c(c1)C(=O)c1ccccc1C2=O` to `CCN(CC)S(=O)(=O)c1ccc(OC)c([N+](=O)[O-])c1`, the “% Inhibition @ 10 uM” value falls from 6.23% to 1.44%.
